# Assay results published in PubChem BioAssay (NCATS).
# “And” between values parts separate entries of the source, which are not always exact repeats. Equal entries are not always repeated. This list was built around the results that the source calls inconclusive (neither active nor inactive); the mix of calls is not that of the screen. For part of these data: No potency is given beside an inconclusive call; the fits are too rough. The source made the active and inactive calls. Unless noted, calls come from the whole dose curve; as a rule, active = well fitted curve in the direction sought with a large enough effect; inconclusive = small, poorly fitted or top-dose-only effect, or another doubt; inactive = no such curve, though single readings can be large; an effect the other way counts as inactive or inconclusive.
# Key:
# [1] = qHTS of pediatric cancer cell lines to identify multiple opportunities for drug repurposing: Primary screen for A673 cells (AID 1347092); settings: A673 Ewing sarcoma viability, CellTiter-Glo ATP luminescence, 48 h; activity change, negative = cytotoxic: at 46 µM (top of the series); note: nearly all actives have a fitted effect of over 45% in size; note: potency is the fitted concentration of half-maximal effect
# Summary of the method: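 Luminescence from CellTiter-Glo, taken after 15 min at room temperature, served as the proxy for metabolically active cells following 48 h treatment. Both potency and efficacy were taken from curves fitted to the titration data.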
# [2] = qHTS of pediatric cancer cell lines to identify multiple opportunities for drug repurposing: Primary screen for SK-N-SH cells (AID 1347098); settings: SK-N-SH viability, CellTiter-Glo luminescence, 48 h; series mostly up to 57 µM;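 note: DMSO served as neutral control and bortezomib at 2.3 µM as positive control; % is set by controls: 0 for no effect and ±100 for the full control effect; nearly all actives have a fitted effect of over 65% in size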
# Summary of the method: (§1)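 Cells (500-1,000/well) rested 5 h, then received compounds for 48 h; metabolically active cells were measured by CellTiter-Glo luminescence. Final concentrations spanned up to 46 µM (MIPE, 11-point) or 0.59 nM-46 µM (NPC, 8-point) in primary screens, 11-point in follow-ups.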
# [3] = qHTS of pediatric cancer cell lines to identify multiple opportunities for drug repurposing: Primary screen for BT-12 cells (AID 1347101); settings: BT-12 viability, CellTiter-Glo luminescence, 48 h; series mostly up to 57.3 µM; note: potency is the fitted concentration of half-maximal effect; nearly all actives have a fitted effect of over 25% in size
# Summary of the method: as §1
# [4] = qHTS of pediatric cancer cell lines to identify multiple opportunities for drug repurposing: Primary screen for OHS-50 cells (AID 1347103); settings: OHS-50 osteosarcoma viability, CellTiter-Glo luminescence, 48 h; activity change, negative = cytotoxic: at 57.3 µM (top of the series); note: nearly all actives have a fitted effect of over 40% in size; note: potency is the fitted concentration of half-maximal effect;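 for activity change, negative = cytotoxic: plate controls were DMSO neutral control for no effect and bortezomib positive control for full effect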
# Summary of the method: as §1
# [5] = Primary qHTS for small molecule stabilizers of the endoplasmic reticulum resident proteome: Secreted ER Calcium Modulated Protein (SERCaMP) assay (AID 1508630); settings: SH-SY5Y GLuc-SERCaMP (Gaussia luciferase released on ER calcium loss) secretion, thapsigargin, luminescence; activity change, negative = inhibition: at 38.4 µM (top of the series) unless noted; note: potency is the fitted concentration of half-maximal effect
# Summary of the method: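 The SH-SY5Y reporter protocol was run at 3 concentrations up to 38.3 uM (primary) or 11 concentrations (follow-up): 16 h compound, 100 nM thapsigargin for 4 h, then extracellular luciferase luminescence.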
# [6] = target: Cytochrome P450 2D6 (Homo sapiens) (UniProt P10635); assay: Cytochrome P450 family 2 subfamily D member 6 (CYP2D6) small molecule antagonists: luciferase biochemical (cell-free) qHTS assay (AID 1645840; active = well fitted curve in the direction sought with a large enough effect in the repeat runs; inconclusive = weak or mixed curves; inactive = no such curve, though single readings can be large; an effect the other way counts as inactive or inconclusive; note: nearly all actives have a fitted effect of over 55% in size; note: potency is the fitted concentration of half-maximal effect; for activity change, negative = inhibition: % is set by controls: 0 for no effect and ±100 for the full control effect); settings: P450-Glo CYP2D6 enzyme, luciferin luminescence, 1 h; series mostly up to 57.4 µM
# Summary of the method: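 P450-Glo CYP2D6 system: proluciferin substrate converted by enzyme to luciferin, read by luminescence proportional to activity. Enzyme-substrate mix with compound 10 min at room temperature, then NADPH regeneration 1 h before detection reagent.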
# [7] = Primary qHTS for inhibitors of nuclear receptor binding SET domain protein 2 (NSD2) in an isogenic RCH-ACV NSD2 p.E1099K mutant (9B) (AID 1645876); settings: RCH-ACV NSD2 E1099K (9B) viability, CellTiter-Glo, 72 h; activity change, negative = viability loss: at 44.9 µM (top of the series) unless noted; series mostly up to 44.9 µM; note: nearly all actives have a fitted effect of over 70% in size; note: potency is the fitted concentration of half-maximal effect; for activity change, negative = viability loss: % is set by controls: 0 for no effect and ±100 for the full control effect
# [8] = Primary qHTS for inhibitors of nuclear receptor binding SET domain protein 2 (NSD2) in an RCH-ACV wild type WT cells (2C) (AID 1645877); settings: RCH-ACV (leukaemia line) NSD2 WT (2C) viability, CellTiter-Glo, 72 h; activity change, negative = cell killing: at 44.9 µM (top of the series) unless noted; series mostly up to 44.9 µM; note: nearly all actives have a fitted effect of over 70% in size; note: potency is the fitted concentration of half-maximal effect
# MCC-13 = assay: qHTS assay to identify novel small-molecules to repurpose for Merkel cell carcinoma treatment (AID 1296009); settings: MCC and control cell lines, CellTiter-Glo viability, 72 h; series mostly up to 46 µM; note: nearly all actives have a fitted effect of over 60% in size; note: potency is the fitted concentration of half-maximal effect; for activity change, negative = cytotoxicity: % is set by controls: 0 for no effect and ±100 for the full control effect
# Summary of the method: (§2)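 CellTiter-Glo luminescence after 72 hr compound exposure at 37 degree celsius gave cell viability. Libraries NPC and MIPE were run as 8- and 11-point dose responses; RLUs normalized to DMSO (negative) and no-cell (cytotoxicity) controls.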
# UISO = assay: as above; settings: MCC and control cell lines, CellTiter-Glo viability, 72 h; series mostly up to 46 µM
# Summary of the method: as §2
# WaGa = assay: as above; settings: MCC and control cell lines, CellTiter-Glo viability, 72 h; series mostly up to 46 µM
# Summary of the method: as §2
# [9] = qHTS of pediatric cancer cell lines to identify multiple opportunities for drug repurposing: Primary screen for NB-EBc1 cells (AID 1347095); settings: NB-EBc1 neuroblastoma viability, CellTiter-Glo luminescence, 48 h; series mostly up to 46 µM; note: potency is the fitted concentration of half-maximal effect;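 for activity change, negative = cytotoxic: plate controls were DMSO neutral control for no effect and bortezomib for full effect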
# Summary of the method: (§3)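 Cells seeded at 500-1,000 cells/well in growth media, rested 5 hours at 37 degrees C, 5% CO2, then dosed; MIPE compounds at 11-point (from 0.78 nM) and NPC at 8-point (from 0.59 nM) final concentrations. Viability by CellTiter-Glo luminescence after 48 hours.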
# [10] = qHTS of pediatric cancer cell lines to identify multiple opportunities for drug repurposing: Primary screen for Saos-2 cells (AID 1347097); settings: Saos-2 viability, CellTiter-Glo ATP luminescence, 48 h; activity change, negative = cytotoxic: at 46 µM (top of the series); note: nearly all actives have a fitted effect of over 40% in size; note: potency is the fitted concentration of half-maximal effect
# Summary of the method: as §3
# [11] = target: Cytochrome P450 2C9 (Homo sapiens) (UniProt P11712); assay: Cytochrome P450 family 2 subfamily C member 9 (CYP2C9) small molecule antagonists: luciferase biochemical (cell-free) qHTS assay (AID 1645842; active = well fitted curve in the direction sought with a large enough effect in the repeat runs; inconclusive = weak or mixed curves; inactive = no such curve, though single readings can be large; an effect the other way counts as inactive or inconclusive; note: potency is the fitted concentration of half-maximal effect; nearly all actives have a fitted effect of over 55% in size); settings: P450-Glo CYP2C9 enzyme assay, luciferin luminescence; series mostly up to 57.4 µM
# Summary of the method: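 P450-Glo CYP2C9 system: proluciferin substrate with enzyme in mix containing 0.4% BSA, 10 min at room temperature, then NADPH regeneration solution added and incubated 1 h at 37C. Detection reagent stopped reaction; luminescence read after 20 min as RLU.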
# MKL-2 = assay: qHTS assay to identify novel small-molecules to repurpose for Merkel cell carcinoma treatment (AID 1296009); settings: MCC and control cell lines, CellTiter-Glo viability, 72 h; activity change, negative = cytotoxicity: at 46 µM (top of the series); note: nearly all actives have a fitted effect of over 60% in size; note: potency is the fitted concentration of half-maximal effect; for activity change, negative = cytotoxicity: % is set by controls: 0 for no effect and ±100 for the full control effect
# Summary of the method: as §2
# [12] = qHTS of pediatric cancer cell lines to identify multiple opportunities for drug repurposing: Primary screen for SK-N-MC cells (AID 1347093); settings: SK-N-MC viability, CellTiter-Glo luminescence, 48 h; activity change, negative = cytotoxic: at 46 µM (top of the series); note: potency is the fitted concentration of half-maximal effect;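 for activity change, negative = cytotoxic: plate controls were DMSO neutral control for no effect and bortezomib for full effect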
# Summary of the method: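 Metabolically active cells were quantified by ATP-dependent luminescence (CellTiter-Glo, 15 min at room temperature) following 48 h treatment. Cells had been plated at 500-1,000 per well and settled for 5 h beforehand.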
# MKL-1 = assay: qHTS assay to identify novel small-molecules to repurpose for Merkel cell carcinoma treatment (AID 1296009); settings: MCC and control cell lines, CellTiter-Glo viability, 72 h; series mostly up to 46 µM; note: nearly all actives have a fitted effect of over 60% in size; note: potency is the fitted concentration of half-maximal effect
# Summary of the method: as §2
# [13] = A High-Content qHTS Against Drug Library for the Identification of Small Molecules that Inhibit DYT1 Early Onset Primary Dystonia-Associated Cell Pathology (AID 1645839; calls by dose curve); settings: HEK293 Flp-In EGFP-delE TorsinA, punctate imaging, 48 h; series mostly up to 46.1 µM
# Summary of the method: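 Cells were seeded and left for 24 h, then dosed with compound alongside tetracycline induction of mutant EGFP-TorsinA. They were incubated for 48 h, fixed in 4% paraformaldehyde, permeabilized and imaged for mislocalization (%pathology) and cell count.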
# [14] = Drug repurposing screens with cells derived from glioblastoma tumor samples (AID 1345199); settings: GBM patient neurospheres viability, ATP luminescence, 48 h; Potency: tumour line A unless noted; activity, negative = cell killing: at 46 µM (top of the series), tumour line A unless noted; note: nearly all actives have a fitted effect of over 40% in size; note: potency is the fitted concentration of half-maximal effect
# Summary of the method: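 Primary testing used CD133+ neurospheres from four GBM patients, seven concentrations, 48 h exposure and ATP-based viability; confirmation added three slower-growing patient lines.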
# Tags give direction and shape of the fitted curve.
# Sequence of UniProt P10635 (P10635 whole entry, looked up): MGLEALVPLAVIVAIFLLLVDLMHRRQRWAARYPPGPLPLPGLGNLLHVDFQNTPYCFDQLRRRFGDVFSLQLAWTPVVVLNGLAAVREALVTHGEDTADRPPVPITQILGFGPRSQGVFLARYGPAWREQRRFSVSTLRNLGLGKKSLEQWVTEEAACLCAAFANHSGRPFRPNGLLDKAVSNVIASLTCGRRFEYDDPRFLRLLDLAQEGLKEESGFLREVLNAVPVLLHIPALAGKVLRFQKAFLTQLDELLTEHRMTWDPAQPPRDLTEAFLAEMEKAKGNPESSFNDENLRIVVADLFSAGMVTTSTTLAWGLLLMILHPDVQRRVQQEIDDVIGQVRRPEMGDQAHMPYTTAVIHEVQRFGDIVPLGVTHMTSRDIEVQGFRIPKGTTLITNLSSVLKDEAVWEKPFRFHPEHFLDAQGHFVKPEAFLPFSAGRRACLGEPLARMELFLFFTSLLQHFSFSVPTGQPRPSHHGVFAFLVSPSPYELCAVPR
# Sequence of UniProt P11712 (P11712 whole entry, looked up): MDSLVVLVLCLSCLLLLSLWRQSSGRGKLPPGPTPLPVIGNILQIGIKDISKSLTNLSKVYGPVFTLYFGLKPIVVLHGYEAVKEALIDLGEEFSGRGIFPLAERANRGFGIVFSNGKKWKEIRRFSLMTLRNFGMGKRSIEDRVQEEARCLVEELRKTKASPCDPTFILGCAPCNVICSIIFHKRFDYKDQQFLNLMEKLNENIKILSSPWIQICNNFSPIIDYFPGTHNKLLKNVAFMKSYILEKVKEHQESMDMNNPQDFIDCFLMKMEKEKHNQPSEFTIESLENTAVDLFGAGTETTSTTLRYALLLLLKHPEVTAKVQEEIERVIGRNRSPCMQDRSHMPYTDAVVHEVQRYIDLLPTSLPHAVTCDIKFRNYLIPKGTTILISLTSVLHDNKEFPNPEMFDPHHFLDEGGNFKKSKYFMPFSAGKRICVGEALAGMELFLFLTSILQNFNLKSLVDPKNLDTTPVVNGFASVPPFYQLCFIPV
compound,measurement,setting,value
Nc1nc(=O)n([C@@H]2O[C@H](CO)[C@@H](O)[C@@H]2F)cc1I,Potency,[1],"inconclusive [cytotoxic, partial curve]"
same,Potency,[2],inactive
same,Potency,[3],"inconclusive [cytotoxic, partial curve, poor fit]"
same,Potency,[4],"inconclusive [cytotoxic, partial curve, poor fit]"
same,Potency,[5],"inconclusive [inhibitor, single point]"
same,Potency,[6],inactive
same,Potency,[7],active: 1.68 µM
same,Potency,[8],"inconclusive [inhibitor, partial curve, poor fit]"
same,Potency,MCC-13,"inconclusive [inhibitor, single point]"
same,Potency,UISO,"inconclusive [inhibitor, partial curve]"
same,Potency,WaGa,"inconclusive [inhibitor, partial curve, poor fit]"
O=C1C(=O)c2ccccc2C(O)=C1C1CCC(c2ccc(Cl)cc2)CC1 (stereo unspecified),Potency,[9],"inconclusive [cytotoxic, partial curve]"
same,Potency,[10],"inconclusive [cytotoxic, partial curve]"
same,Potency,[2],inactive
same,Potency,[5],"inconclusive [inhibitor, full curve]"
same,Potency,[7],inactive
same,Potency,MCC-13,inactive
same,Potency,WaGa,inactive
COC1CC(O[C@H]2CC[C@@]3(C)C(=CC[C@]4(O)C3[C@H](OC(C)=O)[C@@H](OC(=O)c3ccccc3)[C@]3(C)[C@@H](C(C)=O)CC[C@@]34O)C2)OC(C)C1OC1CC(OC)C(OC2CC(OC)C(OC3OC(C)C(OC4OC(CO)C(O)C(O)C4O)C(OC)C3O)C(C)O2)C(C)O1 (stereo partly specified),"activity change, negative = viability loss",[7],inactive: -11.2% [at 9.23 µM]
C=C[C@H]1[C@H](O[C@@H]2O[C@H](CO)[C@@H](O)[C@H](O)[C@H]2O)OC=C(C(=O)OC)[C@H]1C[C@@H]1N[C@H](C(=O)O)Cc2c1[nH]c1ccccc21,Potency,[8],inactive
CCC/C=C/C=C/C1CC(O)C(O)C(=O)C1CO (stereo unspecified),Potency,[7],inactive
C=C(C)C1CCC2(C(=O)O[C@@H]3O[C@H](CO[C@@H]4O[C@H](CO)[C@@H](O)[C@H](O)[C@H]4O)[C@@H](O)[C@H](O[C@@H]4O[C@@H](C)[C@H](O)[C@@H](O)[C@H]4O)[C@H]3O)CCC3(C(=O)O)C(CCC4C5(C)CCC(O)C(C)(C)C5CCC43C)C12 (stereo partly specified),outcome,[7],inactive [at 9.23 µM]
COc1cc(/C=C/C(=O)OC2CC(OC(C)=O)C(OC(C)=O)C3C2CCC2C(=O)OC(c4ccoc4)CC23C)ccc1O[C@@H]1O[C@H](CO)[C@@H](O)[C@H](O)[C@H]1O (stereo partly specified),Potency,[7],"inconclusive [inhibitor, single point]"
Cc1ccc(/C=N/n2c(-c3ccccc3)csc2=S)cc1,Potency,[3],"inconclusive [cytotoxic, single point]"
same,Potency,[4],"inconclusive [cytotoxic, single point]"
same,Potency,[6],inactive
same,Potency,[11],active: 4.36 µM
same,Potency,[8],inactive
same,Potency,MCC-13,inactive
same,Potency,MKL-2,"inconclusive [inhibitor, full curve]"
same,Potency,UISO,"inconclusive [inhibitor, partial curve, poor fit]"
same,Potency,WaGa,"inconclusive [inhibitor, single point]"
Nc1nc(=O)n([C@H]2C[C@H](O)[C@@H](CO)O2)cc1F,Potency,[1],"inconclusive [cytotoxic, full curve]"
same,Potency,[12],"inconclusive [cytotoxic, partial curve, poor fit]"
same,Potency,[3],"inconclusive [cytotoxic, full curve]"
same,Potency,[8],active: 0.0148 µM
same,Potency,MCC-13,"inconclusive [inhibitor, full curve]"
same,Potency,MKL-1,"inconclusive [inhibitor, full curve]"
same,Potency,WaGa,active: 0.0935 µM
CN1CCOC(c2ccccc2)c2ccccc2C1 (stereo unspecified),Potency,[12],inactive
same,Potency,[9],inactive
same,Potency,[4],inactive
same,Potency,[5],"inconclusive [inhibitor, partial curve, poor fit]"
same,Potency,[13],inactive
same,Potency,[7],inactive
same,Potency,[8],inactive
same,Potency,MCC-13,inactive
same,Potency,MKL-2,inactive
same,Potency,[14],"inconclusive [inhibitor, partial curve]"
CO[C@@H]1[C@H](N(C)C(=O)c2ccccc2)C[C@H]2O[C@]1(C)n1c3ccccc3c3c4c(c5c6ccccc6n2c5c31)C(=O)NC4,Potency,[9],"inconclusive [cytotoxic, full curve]"
same,Potency,[3],"inconclusive [cytotoxic, full curve]"
same,Potency,[7],active: 1.3 µM and active: 1.05 µM
same,Potency,MCC-13,active: 2.96 µM
same,Potency,MKL-2,"inconclusive [inhibitor, full curve]"
same,Potency,UISO,"inconclusive [inhibitor, full curve]"
O=S(=O)(O)c1ccc(O)cc1,Potency,[2],inactive
same,Potency,MCC-13,inactive
same,Potency,MKL-2,inactive
same,"activity, negative = cell killing",[14],inconclusive: -37.4% [inhibitor]
Cc1c(N(C)C)c(=O)n(-c2ccccc2)n1C,Potency,[1],inactive
same,Potency,[10],inactive
same,Potency,[4],inactive
same,Potency,[11],"inconclusive [inhibitor, single point]"
same,Potency,MCC-13,inactive
same,Potency,WaGa,inactive
COC(=O)N(C)c1c(N)nc(-c2nn(Cc3ccccc3F)c3ncccc23)nc1N,Potency,[6],"inconclusive [inhibitor, partial curve, poor fit]"
